Eight variants from the supplement of paper PMC12217912 can be followed below.

The list shows a part of the results. The full chains were built here from the parent and the listed change. Values near 0.05 are background.

Sequences and labels used below:
B1: TEV protease; numbered along this chain (parent)
chain: MGESLFKGPRDYNPISSSICHLTNESDGHTTSLYGIGFGPFIITNKHLFRRNNGTLVVQSLHGVFKVKDTTTLQQHLVDGRDMIIIRMPKDFPPFPQKLKFREPQREERICLVTTNFQTKSMSSMVSDTSCTFPSGDGIFWKHWIQTKDGQCGSPLVSTRDGFIVGIHSASNFTNTNNYFTSVPKNFMELLTNQEAQQWVSGWRLNADSVLWGGHKVFMVKPEEPFQPVKEATQL

The variants in this experiment derive from B1. As to the kind of experiment: raw area under fraction-flipped curve 0-4 h after induction (AUC4h, not background-subtracted), DNA-recorder readout of cleavage of the substrate (dimensionless); higher = more cleavage of the substrate by the protease variant. The note with it: temperature: 34 °C; time window: 0-4 h after rhamnose induction. How it is done: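 In vivo DNA recorder in E. coli TOP10(DE3) ΔrhaA at 34 °C. Each TEVp single-site mutant (parent TEVp 0) is paired with a single-site variant of the 7-mer TEVs (canonical ENLYFQ|S). The substrate sits between flexible linkers in a Bxb1-sfGFP-TEVs-SsrA fusion, so cleavage stabilises Bxb1 and speeds flipping of a recombination array, read by NGS. The value is the raw area under the fraction-flipped curve over 0-4 h after rhamnose induction (AUC4h), with ≥20 reads per time point. It is not background-subtracted; inactive controls average about 0.047.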
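Further: Bxb1 expression induced with 0.2% (w/v) L-rhamnose at OD600 near 0.5, cultures sampled hourly, flipped fraction per protease–substrate barcode pair counted by paired-end Illumina sequencing.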

Take F92P: the “area with substrate ENLYFCS” value was 0.0468, the “area with substrate ENLYFDS” value came out at 0.0428, the “area with substrate ENLYFFS” value turned out to be 0.0727 and the “area with substrate ENLYFHS” value was found to be 0.0474. For the same variant, the “area with substrate ENLYFIS” value is 0.0502, the “area with substrate ENLYFKS” value worked out at 0.0573, the “area with substrate ENLYFMS” value is 0.0599 and the “area with substrate ENLYFNS” value was found to be 0.0581. Also, the “area with substrate ENLYFPS” value came out at 0.0793, the “area with substrate ENLYFTS” value was found to be 0.0533, the “area with substrate ENLYFVS” value turned out to be 0.0515 and the “area with substrate ENLYFWS” value turned out to be 0.048.

As for M83Q, the “area with substrate ENLYFAS” value is 0.0568, the “area with substrate ENLYFCS” value amounted to 0.0658, the “area with substrate ENLYFES” value is 0.0648 and the “area with substrate ENLYFHS” value was 0.0681. The “area with substrate ENLYFIS” value came to 0.0653, the “area with substrate ENLYFKS” value came out at 0.0544, the “area with substrate ENLYFNS” value was 0.0564 and the “area with substrate ENLYFPS” value was found to be 0.0601. For the same variant, the “area with substrate ENLYFRS” value came out at 0.0658, the “area with substrate ENLYFSS” value came to 0.0163, the “area with substrate ENLYFTS” value worked out at 0.0471 and the “area with substrate ENLYFWS” value is 0.0483.

As for I139D, the “area with substrate ENLYFAS” value is 0.0589, the “area with substrate ENLYFCS” value turned out to be 0.0587, the “area with substrate ENLYFES” value came out at 0.0771 and the “area with substrate ENLYFFS” value is 0.0534. Also, the “area with substrate ENLYFHS” value came to 0.0159, the “area with substrate ENLYFIS” value worked out at 0.0566, the “area with substrate ENLYFKS” value worked out at 0.0627 and the “area with substrate ENLYFMS” value amounted to 0.065. The “area with substrate ENLYFPS” value amounted to 0.0578, the “area with substrate ENLYFSS” value amounted to 0.0662, the “area with substrate ENLYFVS” value came out at 0.0495 and the “area with substrate ENLYFYS” value was found to be 0.0267.

In the case of I84Q, the “area with substrate ENLYFAS” value stood at 0.0448, the “area with substrate ENLYFES” value came out at 0.0563, the “area with substrate ENLYFGS” value is 0.0403 and the “area with substrate ENLYFKS” value worked out at 0.0569. In addition, the “area with substrate ENLYFLS” value was 0.0693, the “area with substrate ENLYFNS” value turned out to be 0.067 and the “area with substrate ENLYFPS” value came out at 0.0682.

Consider H76P, for which the “area with substrate ENLYFCS” value turned out to be 0.0629, the “area with substrate ENLYFES” value came out at 0.0501, the “area with substrate ENLYFFS” value was 0.0707 and the “area with substrate ENLYFHS” value amounted to 0.044. Moreover, the “area with substrate ENLYFIS” value was 0.0631, the “area with substrate ENLYFKS” value came out at 0.0617, the “area with substrate ENLYFMS” value was found to be 0.037 and the “area with substrate ENLYFNS” value was 0.0565. The “area with substrate ENLYFPS” value amounted to 0.0503, the “area with substrate ENLYFSS” value is 0.0511, the “area with substrate ENLYFTS” value was 0.05 and the “area with substrate ENLYFWS” value was 0.051.

In the case of L235A, the “area with substrate ENLYFAS” value turned out to be 0.0606, the “area with substrate ENLYFCS” value was determined as 0.0512, the “area with substrate ENLYFDS” value came to 0.0385 and the “area with substrate ENLYFFS” value is 0.0746. Besides, the “area with substrate ENLYFGS” value was determined as 0.0506, the “area with substrate ENLYFHS” value amounted to 0.0812, the “area with substrate ENLYFIS” value was determined as 0.0654 and the “area with substrate ENLYFKS” value was found to be 0.0663. Further, the “area with substrate ENLYFLS” value was 0.0643, the “area with substrate ENLYFMS” value is 0.0655, the “area with substrate ENLYFPS” value was 0.0677 and the “area with substrate ENLYFRS” value was 0.0662. Also, the “area with substrate ENLYFTS” value is 0.0947, the “area with substrate ENLYFVS” value amounted to 0.0659 and the “area with substrate ENLYFWS” value was 0.0455.

Consider S154Q, for which the “area with substrate ENLYFCS” value stood at 0.0528, the “area with substrate ENLYFFS” value stood at 0.0705, the “area with substrate ENLYFGS” value came to 0.0599 and the “area with substrate ENLYFIS” value is 0.0473. Further, the “area with substrate ENLYFLS” value was 0.0465, the “area with substrate ENLYFNS” value came to 0.0652, the “area with substrate ENLYFPS” value worked out at 0.0397 and the “area with substrate ENLYFSS” value worked out at 0.0666. The “area with substrate ENLYFTS” value amounted to 0.0639.

As to T181R, the “area with substrate ENLYFAS” value amounted to 0.0639, the “area with substrate ENLYFDS” value came to 0.0622, the “area with substrate ENLYFFS” value worked out at 0.0626 and the “area with substrate ENLYFGS” value was 0.0537. The “area with substrate ENLYFHS” value was determined as 0.054, the “area with substrate ENLYFIS” value was determined as 0.0467, the “area with substrate ENLYFKS” value was found to be 0.0547 and the “area with substrate ENLYFLS” value was found to be 0.0557. Also, the “area with substrate ENLYFMS” value came to 0.043, the “area with substrate ENLYFNS” value stood at 0.0702, the “area with substrate ENLYFPS” value is 0.052 and the “area with substrate ENLYFRS” value came out at 0.0364. Moreover, the “area with substrate ENLYFSS” value came out at 0.0406, the “area with substrate ENLYFTS” value came to 0.0525, the “area with substrate ENLYFVS” value was found to be 0.0138 and the “area with substrate ENLYFYS” value was 0.0346.
